Tested on: SCLC6 small cell lung cancer xenografted in nude mice
Test: SCLC6 xenograft tumor growth in nude mice
Type: in vivo
Conditions: SCLC6-bearing nude mice; etoposide 12 mg/kg ip days 1-3, with or without STI571 70 mg/kg ip days 1-3 and fluconazole 40 mg/kg/d ip days 1-3; started day +6 after transplantation; etoposide vs control, combinations vs etoposide

## COc1cc([C@@H]2c3cc4c(cc3[C@@H](O[C@@H]3O[C@@H]5CO[C@@H](C)O[C@H]5[C@H](O)[C@H]3O)[C@H]3COC(=O)[C@H]23)OCO4)cc(OC)c1O [etoposide]
  inhibition of SCLC6 tumor growth (relative tumor volume): brief but non-significant inhibition
